# Source: PubChem BioAssay (Tox21)
# Several values for one entry are separate records, joined by “and”; a condition that tells them apart may be missing. Equal values may be shown once. This list was built around the results that the source calls inconclusive (neither active nor inactive); the mix of calls is not that of the screen. For some of these results: Where the call is inconclusive, the potency comes from a doubtful curve fit. Some structures have more than one record in an assay (separate samples or runs), and their calls can disagree. Activity calls are given as the source filed them. The call rests on the fitted dose curve; in most records, active means well fitted curve in the direction sought with a large enough effect in the repeat runs; inconclusive means weak or mixed curves; inactive means no such curve, though single readings can be large; an effect the other way counts as inactive or inconclusive.
# Assays:
# [1] = Caspase-3/7 induction in CHO-K1 cells by small molecules, qHTS cell viability counter screen (AID 1346979); further: nearly all actives have a fitted effect of over 35% in size; further: potency means the concentration at half of the fitted maximal effect
# In short: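 Cytotoxicity counter screen run in parallel with the caspase-3/7 assay: CHO-K1 cells, 16hr compound treatment at 37C, then CellTiter-Fluor for 1hr before fluorescence reading.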
# [2] = Caspase-3/7 induction in CHO-K1 cells by small molecules, qHTS assay (AID 1346980); further: nearly all actives have a fitted effect of over 15% in size; further: potency means the concentration at half of the fitted maximal effect
# In short: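 Wild-type CHO-K1 cells exposed to compounds for 17hr at 37 C, 5% CO2. Caspase-3/7 activity then measured by Caspase-Glo 3/7 luminescence after 30min at room temperature.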
# [3] = biological target: Nuclear receptor subfamily 1 group I member 2 (Homo sapiens) (UniProt O75469); assay: Human pregnane X receptor (PXR) small molecule agonists, qHTS assay (AID 1346982); further: potency means the concentration at half of the fitted maximal effect; nearly all actives have a fitted effect of over 35% in size
# In short: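 We seeded PXR-Luc HepG2 cells in assay medium containing 5% charcoal-stripped FBS, added compounds 5 hr later, incubated 24 hr, and read luminescence with ONE-Glo reagent.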
# [4] = biological target: Cytochrome P450 2D6 (Homo sapiens) (UniProt P10635); assay: Cytochrome P450 Family 2 Subfamily D Member 6 (CYP2D6) small molecule antagonists: luciferase reporter qHTS assay (AID 1671196); further: nearly all actives have a fitted effect of over 50% in size; further: potency means the concentration at half of the fitted maximal effect
# Sequence of UniProt P10635 (P10635 whole entry, looked up): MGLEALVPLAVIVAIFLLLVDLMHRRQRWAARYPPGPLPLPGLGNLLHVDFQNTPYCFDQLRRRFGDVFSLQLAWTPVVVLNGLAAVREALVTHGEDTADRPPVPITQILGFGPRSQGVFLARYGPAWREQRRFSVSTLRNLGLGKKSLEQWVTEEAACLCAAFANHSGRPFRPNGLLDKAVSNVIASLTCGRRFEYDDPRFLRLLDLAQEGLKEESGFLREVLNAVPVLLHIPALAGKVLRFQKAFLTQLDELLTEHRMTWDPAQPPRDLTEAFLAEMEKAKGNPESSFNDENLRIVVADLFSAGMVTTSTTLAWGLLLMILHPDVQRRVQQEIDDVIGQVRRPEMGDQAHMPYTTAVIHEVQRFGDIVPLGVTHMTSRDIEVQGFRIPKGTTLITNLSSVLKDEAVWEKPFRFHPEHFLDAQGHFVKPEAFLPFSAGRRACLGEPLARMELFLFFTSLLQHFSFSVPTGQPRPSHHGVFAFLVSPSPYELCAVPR
# In short: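 Luminescence (RLU), read 20 min after detection reagent, indicated CYP2D6 conversion of proluciferin to luciferin during a 1 h NADPH-dependent reaction at room temperature.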
# [5] = Caspase-3/7 induction in HepG2 cells by small molecules, qHTS cell viability counter screen (AID 1346981); further: nearly all actives have a fitted effect of over 30% in size; further: potency means the concentration at half of the fitted maximal effect
# In short: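 Multiplexed with the caspase-3/7 assay: HepG2 cells, 16 hr compound treatment, CellTiter-Fluor viability detection by fluorescence.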
# [6] = biological target: Nuclear receptor subfamily 1 group I member 2 (Homo sapiens) (UniProt O75469); assay: Human pregnane X receptor (PXR) activation by small molecules, qHTS assay (AID 1346985); further: potency means the concentration at half of the fitted maximal effect; nearly all actives have a fitted effect of over 40% in size
# In short: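 DPX-2 cells (HepG2 co-transfected with a PXR response element and a CYP3A4-promoter luciferase construct) were seeded at 2,000 per well, rested 5 hr at 37C, then exposed to DMSO-dissolved compounds for 24 hr. Activation was read as luciferase luminescence.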
# [7] = biological target: Cytochrome P450 2C19 (Homo sapiens) (UniProt P33261); assay: Cytochrome P450 Family 2 Subfamily C Member 19 (CYP2C19) small molecule antagonists: luciferase reporter qHTS assay (AID 1671197); further: series mostly up to about 120 µM; nearly all actives have a fitted effect of over 65% in size
# Sequence of UniProt P33261 (P33261 whole entry, looked up): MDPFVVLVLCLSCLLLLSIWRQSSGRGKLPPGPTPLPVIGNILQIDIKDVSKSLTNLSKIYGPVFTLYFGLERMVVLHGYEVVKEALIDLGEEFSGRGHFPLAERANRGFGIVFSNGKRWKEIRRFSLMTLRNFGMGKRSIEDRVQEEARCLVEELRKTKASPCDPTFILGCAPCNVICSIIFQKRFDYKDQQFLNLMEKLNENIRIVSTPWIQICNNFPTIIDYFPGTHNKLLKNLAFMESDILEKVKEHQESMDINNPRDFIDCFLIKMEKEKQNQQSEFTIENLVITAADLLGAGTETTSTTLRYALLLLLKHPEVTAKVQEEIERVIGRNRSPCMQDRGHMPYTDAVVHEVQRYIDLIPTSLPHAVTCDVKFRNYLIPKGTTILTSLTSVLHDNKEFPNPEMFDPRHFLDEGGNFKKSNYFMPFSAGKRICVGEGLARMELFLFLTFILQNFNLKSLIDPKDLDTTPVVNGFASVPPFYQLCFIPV
# In short: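 Inhibition of CYP2C19 was scored from loss of luminescence in a P450-Glo proluciferin substrate assay, NADPH-started and run 1 h at 37C, with ketoconazole as positive control.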
# [8] = biological target: Nuclear receptor subfamily 1 group I member 2 (Homo sapiens) (UniProt O75469); assay: CYP3A4 induction through human pregnane X receptor (PXR) by small molecules, qHTS assay (AID 1346984); further: potency means the concentration at half of the fitted maximal effect; nearly all actives have a fitted effect of over 40% in size
# In short: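 qHTS, concentration-response format: HepG2 DPX-2 line, PXR/CYP3A4-luc. Exposure 24 h, 37C. Substrate Luciferin-IPA 3uM final, 3 h. Detection One-Glo, 30 min RT.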
# [9] = biological target: Nuclear receptor subfamily 1 group I member 2 (Rattus norvegicus) (UniProt Q9R1A7); assay: Rat pregnane X receptor (rPXR) activation by small molecules, qHTS assay (AID 1346983); details: rPXR luciferase reporter cells, One-Glo luminescence, 24 h; max activation: stronger effect = higher value; further: potency means the concentration at half of the fitted maximal effect; nearly all actives have a fitted effect of over 20% in size
# Sequence of UniProt Q9R1A7 (Q9R1A7 whole entry, looked up): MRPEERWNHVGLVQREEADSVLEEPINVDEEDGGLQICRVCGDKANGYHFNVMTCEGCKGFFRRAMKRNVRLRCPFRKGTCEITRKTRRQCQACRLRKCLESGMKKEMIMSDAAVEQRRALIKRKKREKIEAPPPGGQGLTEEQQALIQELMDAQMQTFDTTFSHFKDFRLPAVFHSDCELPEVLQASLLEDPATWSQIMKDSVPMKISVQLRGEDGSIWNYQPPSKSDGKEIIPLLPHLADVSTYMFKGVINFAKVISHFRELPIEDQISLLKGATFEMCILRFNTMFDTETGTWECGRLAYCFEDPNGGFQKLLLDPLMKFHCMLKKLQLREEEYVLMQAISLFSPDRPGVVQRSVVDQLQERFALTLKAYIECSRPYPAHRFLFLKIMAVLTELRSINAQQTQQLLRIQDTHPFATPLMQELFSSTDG
# In short: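 Cell-based rPXR activation assay: rPXR cells, 2,000 per well, rested 5hr at 37 C, then exposed to compounds in DMSO for 24 hr at 37 C. Luciferase activity read by One-Glo luminescence after 30 min at room temperature.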
# Tags describe the fitted curve by direction and shape.
smiles,measurement,setting,value
c1ccc(Nc2cccc3ccccc23)cc1,Potency,[1],"active: 61.9 µM and inconclusive: 77 µM [cytotoxic, single point]"
same,Potency,[2],"inconclusive: 61.9 µM [activator, partial curve]"
same,Potency,[3],active: 61.9 µM and active: 30.6 µM
same,Potency,[4],"inconclusive: 71 µM [inhibitor, partial curve]"
C=C1C(C)(C)[C@@]2(Cl)C(Cl)[C@]1(Cl)C(Cl)(Cl)C2(Cl)Cl (stereo partly drawn),Potency,[1],active: 60 µM
same,Potency,[2],active: 60 µM
same,Potency,[5],"inconclusive: 75.6 µM [cytotoxic, partial curve, poor fit]"
CC(C)(C)c1cc(/C=C2\SC(=N)NC2=O)cc(C(C)(C)C)c1O,Potency,[1],active: 54.5 µM
CCN(CC)C(=S)SSC(=S)N(CC)CC,Potency,[1],active: 137 nM and active: 62.6 nM and active: 376 nM
same,Potency,[2],"inconclusive: 8.63 µM [activator, partial curve, poor fit] and inconclusive: 12.5 µM [activator, partial curve, poor fit] and inactive"
same,Potency,[5],inactive and inconclusive: 6.26 µM [cytotoxic]
same,Potency,[3],"inconclusive: 7.7 µM [activator, partial curve, poor fit]"
same,Potency,[4],"inconclusive: 63.3 µM [inhibitor, partial curve] and inconclusive: 34.7 µM [inhibitor, partial curve, poor fit]"
Oc1ccc(O)cc1,Potency,[1],"inconclusive: 33.5 µM [cytotoxic, single point]"
same,Potency,[2],"inconclusive: 27.1 µM [activator, single point]"
same,Potency,[5],"inconclusive: 0.216 µM [cytotoxic, full curve, poor fit]"
same,Potency,[4],"inconclusive: 62.9 µM [inhibitor, partial curve] and inconclusive: 63.3 µM [inhibitor, partial curve]"
CC(C)(C)CC(C)(C)c1ccc(O)c(Cc2ccc(Cl)cc2Cl)c1,Potency,[1],active: 18.8 µM
same,Potency,[2],active: 21.1 µM
same,Potency,[6],"inconclusive: 12.6 µM [activator, partial curve, poor fit]"
same,Potency,[4],"inconclusive: 17.4 µM [inhibitor, partial curve]"
COc1cc([C@@H]2c3cc4c(cc3[C@@H](O[C@@H]3O[C@@H]5CO[C@@H](C)O[C@H]5[C@H](O)[C@H]3O)[C@H]3COC(=O)[C@H]23)OCO4)cc(OC)c1O,Potency,[1],"inconclusive: 53.9 µM [cytotoxic, partial curve]"
Cc1ccc(C(C)(C)C)c(O)c1,Potency,[1],"inconclusive: 68.6 µM [cytotoxic, single point]"
same,Potency,[2],"inconclusive: 41.9 µM [activator, partial curve, poor fit]"
same,Potency,[5],inactive
CCCCCCO,Potency,[1],"inconclusive: 27.4 µM [cytotoxic, single point]"
CCCSS/C(CCO)=C(\C)N(C=O)Cc1cnc(C)nc1N,Potency,[1],"inconclusive: 33.5 µM [cytotoxic, single point]"
same,Potency,[2],"inconclusive: 33.5 µM [activator, single point]"
same,Potency,[3],"inconclusive: 33.5 µM [activator, single point]"
same,Potency,[4],active: 34.7 µM
CCCCCCCC/C=C\CCCCCCCCOCCO,Potency,[1],active: 35.5 µM
same,Potency,[5],active: 35.5 µM
ClC1=C(Cl)C(Cl)(Cl)C(Cl)=C1Cl,Potency,[1],"inactive and inconclusive: 68.6 µM [cytotoxic, single point]"
same,Potency,[2],active: 68.6 µM
same,Potency,[7],inactive
Cc1cc(O)c(C(C)C)cc1Cl,Potency,[1],"inconclusive: 109 µM [cytotoxic, partial curve, poor fit]"
same,Potency,[5],inactive
same,Potency,[4],active: 63.3 µM and inactive
Cc1ccc(O)c(C(C)(C)C)c1,Potency,[1],"inconclusive: 68.5 µM [cytotoxic, single point] and inconclusive: 68.6 µM [cytotoxic, single point]"
same,Potency,[5],"inconclusive: 86.2 µM [cytotoxic, partial curve, poor fit]"
COC(=O)C1=C(C)NC(C)=C(C(=O)OC)C1c1ccccc1[N+](=O)[O-],Potency,[1],active: 48.6 µM and active: 26.6 µM
same,Potency,[5],active: 30.7 µM
CC1=NN(c2ccccc2)C(=O)C1,Potency,[1],"inconclusive: 69 µM [cytotoxic, single point]"
same,Potency,[5],"inconclusive: 77.4 µM [cytotoxic, single point]"
same,Potency,[3],"inconclusive: 69 µM [activator, single point] and inconclusive: 48.6 µM [activator, partial curve, poor fit]"
same,Potency,[8],active: 25.1 µM
same,Potency,[4],"active: 31.9 µM and inconclusive: 39.9 µM [inhibitor, partial curve]"
CCOC(=O)N1CCC(=C2c3ccc(Cl)cc3CCc3cccnc32)CC1,Potency,[1],active: 43.3 µM and active: 26.6 µM
same,Potency,[5],"inconclusive: 33.5 µM [cytotoxic, single point]"
CC1=C(CC(=O)O)c2cc(F)ccc2/C1=C\c1ccc(S(C)=O)cc1 (stereo not drawn),Potency,[1],"inconclusive: 61.1 µM [cytotoxic, partial curve, poor fit]"
same,Potency,[5],"inconclusive: 34.4 µM [cytotoxic, partial curve]"
O=c1c(O)c(-c2ccc(O)cc2)oc2cc(O)cc(O)c12,Potency,[1],"inconclusive: 46.3 µM [cytotoxic, single point]"
same,Potency,[5],"active: 60.9 µM and inconclusive: 18.4 µM [cytotoxic, full curve]"
C=C1C[C@H]2[C@@H]3C=C(C)C4=CC(=O)CC[C@]4(C)[C@H]3CC[C@]2(C)[C@@]1(OC(C)=O)C(C)=O,Potency,[1],"inconclusive: 44.2 µM [cytotoxic] and inconclusive: 33.5 µM [cytotoxic, single point]"
same,Potency,[3],"inconclusive: 13.3 µM [activator, partial curve, poor fit]"
same,Potency,[9],"inconclusive: 5.01 µM [activator, full curve, poor fit]"
CC(C)c1ccc2sc3ccccc3c(=O)c2c1,Potency,[1],inactive
same,Potency,[3],active: 17.2 µM
